Reference: patent publication US9995734B2, “Human T cell line assay for evaluating the immunologic identity of glatiramer acetate preparations” (Mylan Inc., priority 2013, dated 2018)

Test system: Donor 3 T-cell cultures
Assay: BrdU uptake proliferation screen, Donor 3 cultures initiated with 100 μg/mL COP or GMA
Conditions: for GA-specific reactivity, BrdU uptake: Donor 3 cultures initiated and stimulated with 100 μg/mL, Day 13

Substance: L-glutamic acid polymer with L-alanine, L-lysine and L-tyrosine, acetate (salt) [GA]
- GA titration: proliferative and cytokine responses (10 and 30 μg/mL versus 100 μg/mL GA): better proliferative and cytokine responses at 10 and 30 μg/mL GA than at 100 μg/mL GA

Substance: glatiramer acetate [COP]
- GA-specific reactivity, BrdU uptake: None of the lines tested showed GA-specific reactivity

Substance: glatiramer acetate [GMA]
- GA-specific reactivity, BrdU uptake: None of the lines tested showed GA-specific reactivity
